# Measured values taken from the supplement of paper PMC11417369.
# ± gives the standard deviation of the averaged measurements. The list shows a part of the results.
# System: PfAP2-G AP2 domain (GST-tagged)
# Assay: gcPBM binding intensity (ln(normalized median fluorescence intensity)); higher = stronger DNA binding
# Method in brief: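 For binding intensity, the highest Masliner-normalised natural-log median intensity across replicate spots of either probe orientation was taken. Protein bound to the array was stained with Alexa488 anti-GST antibody and scanned at 488 nm. The protein, GST-tagged P. falciparum DNA-binding domains from E. coli at about 25 μg on average, had been applied for 1 h to an Agilent 4 × 180k array of primer-extended double-stranded 36-bp intergenic genomic probes and negative controls.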
row,Sequence,gcPBM binding intensity (ln)
1,TTATATATAAATGTGTGTACTTATAAAATAATCATT [XGTACX_site5370],11.3 ± 0.86
2,AATGGTATAAACAATACACACATAATATAAATATTG [CACACA_site6878],10.1 ± 0.13
3,TTTATTTGTTCATGCGTGCACTTGATAACAATGTAC [GTGCAC_site9561],11 ± 0.53
4,TTTTTTTTTGTTAAAGTGCATATATTAAATTTTCCT [GTGCAC_site9677],9.97 ± 0.17
5,GGAAAAAAATATAAAAGTACTTTTTATTTATTTTAT [XGTACX_site7418],11.1 ± 0.57
6,AAAAAAAATTCATATTGTACTTTTAAATTAAAGAAA [XGTACX_site4521],11.3 ± 0.83
7,TTAAAATTTTTCAAAAGTACATAAATAATATATATT [XGTACX_site4694],11.2 ± 0.8
8,AATATATTATATATATGTACATAATGTGTAATACCT [XGTACX_site2845],11 ± 0.55
9,AGTGAATATCTAAAATGTACATAAATAAATAAATAA [XGTACX_site8293],11.1 ± 0.7
10,CGTTATATCAAAGGAGTGCATTATGAATACGTTTTA [GTGCAC_site9837],10.3 ± 0.23
11,TTTCACTACACAAATACACACAAAAATATATGTGCA [CACACA_site2632],10.1 ± 0.13
12,TTCTATTTTATATGTGCACACATATACACCCACAAA [CACACA_site1130],10.9 ± 0.54
13,TTCTTTTTGAAACACACACACACAAGAAAATATATA [CACACA_site3110],10.3 ± 0.33
14,AAAAAAAAAAAACATACACACATACATACAGATATA [CACACA_site4681],9.94 ± 0.13
15,ATTTTTTAAATTTAAACACACATTTTGTATATGTTT [CACACA_site1654],9.94 ± 0.057
16,GATATATAATATAATACACACATTTTATGAATGTAA [CACACA_site24],9.82 ± 0.099
17,TCTACTATTATATATTGTACAAATGATACTTATATT [XGTACX_site1819],10.9 ± 0.61
18,AAATTTTTTGTTCAATGTACTTTTTTATTATATTTT [XGTACX_site5298],11.3 ± 0.73
19,ATATATAATTAATAAAGTACATTAATTATTTCTTTT [XGTACX_site3034],11.1 ± 0.61
20,AAAAAAATAACAAAAGTGCATTTTTATGAGTTATCT,9.775 ± 0.007
21,TTTCCTTACCCTTTCCTGGTGTAGAAATTATACTCT [TGCATGCA_negctrl_site116],10 ± 0.13
22,TATAATTAAAATTTGTGTACGTATGACAAAACATTT [XGTACX_site7072],11.6 ± 0.91
23,AGATACAAGCACTATAGTACACATACTAAAAATATA [XGTACX_site5849],11.2 ± 0.8

row,Sequence,gcPBM binding intensity (ln)
1,AAATGAAAAATAAGGAAAAAAAAAAAAAAAAAAAAA [CACACA_negctrl_site1715],9.64 ± 0.45
2,TAAAATATTTCAAAGGTGCAATGATAATTTAAGACG [GTGCAC_site9609],10.07 ± 0.099
3,ATATTGACAGGAAAAATTTTCTTTGAATCTTTAAAA [CACACA_negctrl_site1191],9.755 ± 0.035
4,TATGTTATATTGGACACACACAATAAACATTATGTA [CACACA_site1657],10.7 ± 0.59
5,ATATATATATATAAGCGTACGCGTAGTTAAATTAAT [XGTACX_site7693],11.6 ± 0.77
6,ACAAAAAAAATAAGCACACATATATATATATATATA [CACACA_site816],10.1 ± 0.34
7,TACATGATAAGATGTAGTACATAAAAGAATAAATTA [XGTACX_site787],11.5 ± 1
8,TTTTCAAAAATATATACACACATGCATATTACGGTG [CACACA_site775],10.05 ± 0.014
9,TATTCAATACTTAATGCACACAATAAAAAAAATATG [CACACA_site2467],10.4 ± 0.45
10,ACGATAACATTTTTACGTACATATATTTTCACGGAG [XGTACX_site8764],11.4 ± 0.88
11,TTATTCATTTCGAAAAGTACAAATTCTGTTTATTAT [XGTACX_site6892],11.1 ± 0.71
12,GAAATAATTTTTATTTGTACACACATACATATATAT [XGTACX_site1862],11 ± 0.6
13,AAATTTTATAAAGGAACACACATTTTTTTTTTTTCT [CACACA_site2368],9.86 ± 0.085
14,CCACTAATTATGTGCACACAAATTAAAGGTCTACAA [CACACA_site4259],10.7 ± 0.45
15,AAAAAAAAAAAATACGTGCACTATGATATATTATAT,10.4 ± 0.4
16,TTCACTCCATATTATACACACACACTAATGAAAAAA [CACACA_site8991],10.3 ± 0.38
17,AAAAAAAAAAAAAGTACACACATACATATAAATATA [CACACA_site8533],11.5 ± 0.86
18,TTTTGTCGGAAATCGGATAAGAAGAAAAAAAATAAT [GTGCAC_negctrl_site594],10.2 ± 0.26
19,ATAATATTTATAAATTGTACTAATGTTCAATAATTA [XGTACX_site7284],10.9 ± 0.77
20,ATAATAAAAATAAAATGTACATACATAAATATATAT [XGTACX_site6228],11.1 ± 0.53
21,TATCGTTTTATTCGGTTGCACCAAAAAAATAAAATA [GTGCAC_site9408],10.3 ± 0.45
22,AAATATATATAAGCGTGTACACATTCTGAGTGTTGT [XGTACX_site1088],11.7 ± 1.1
23,ATATATATATAATAAGTGCAAAAATAATGACCTATA,10.3 ± 0.23

row,Sequence,gcPBM binding intensity (ln)
1,AGCTATAATAAATATACACACATATATAAATATGTA [CACACA_site6583],9.715 ± 0.021
2,AAAAAAAATTAAAATAAAATATAAATATAAAATATA [GTGCAC_negctrl_site714],9.395 ± 0.078
3,TATATATTTTTATGCACACACAAAGAAAATTTTCCT [CACACA_site2863],10.3 ± 0.18
4,AATTTATATTAAAATTGTACATTTCTTCTATAATAC [XGTACX_site8639],10.8 ± 0.34
5,AATATATTTAATGAGTGTACATTATTTATTATTATT [XGTACX_site6889],11.2 ± 0.69
6,AAATAAAAAAAATAAAAGCAATCATAATAAAAATCT [CACACA_negctrl_site161],9.73 ± 0.13
7,TGTATGTATTTGTGTAGTACGCATAAGTAATAAAAC [XGTACX_site6704],11.5 ± 0.94
8,TCCCATATATATATATATATATATATATATAATAAT [TGCATGCA_negctrl_site41],9.63 ± 0.11
9,TACCAAAAGAAACACACACACAAAATATATAAATAT [CACACA_site1869],10 ± 0.099
10,ATACTTTTAATATGCACATGCAAATATGAAATATCG [TGCATGCA_site603],9.96 ± 0.16
11,TTTGGCTAGTCAAGTTGTACAAAAAAAAAAAAAAAA [XGTACX_site8382],11.2 ± 1.1
12,ATTTAATTTTCATGATGTACTATAGTTTAATGCACA [XGTACX_site1624],10.8 ± 0.4
13,TAATAATCAAACTATACACACATAAATAGATATATA [CACACA_site6220],9.835 ± 0.021
14,TGTAAATATAAATGTAATAAATATGTAAAAATAAAT [XGTACX_negctrl_site171],9.79 ± 0.13
15,TATTTTCAAAAATATACACACACATAAATATATGTA [CACACA_site8160],9.92 ± 0.11
16,GGTAATAAACAATGAAGTACGTAAAGGTAAAATATT [XGTACX_site2647],11.3 ± 0.59
17,TTATTAGGTATATATGCACACAATACCCAAAACAAC [CACACA_site4221],10.6 ± 0.48
18,TATCATTTTTTTAAAACACACATAATAATATAAATA [CACACA_site2845],10 ± 0.16
19,TAAATTTTATAAATCTGTACATATGAGCAAGAACAT [XGTACX_site7400],11.1 ± 0.69
20,ATTATGCACCAACACACACACACACCCCTAAAAAAT [CACACA_site2568],10.5 ± 0.53
21,CACTTCAAAAAAATATGTACACATATATATATATAT [XGTACX_site3075],11.4 ± 0.86
22,TTATATGTATTTCTTTGTACACATTTTTATATATAT [XGTACX_site1462],11.5 ± 0.91
23,TATATTTGAAATATATGTACTTATAATACAGTTTAA [XGTACX_site8039],11.2 ± 0.93

row,Sequence,gcPBM binding intensity (ln)
1,TAAAGAGTTACCATTTGTACTTACGCACACATAAAA [XGTACX_site3145],11.2 ± 0.83
2,TTTTTATGTTATCAAATAAATATAAATATAATTCAT [CACACA_negctrl_site1522],9.655 ± 0.064
3,ATGTATACAAATATATGTACGTATGTTCTCTTCTTT [XGTACX_site7865],11.2 ± 0.81
4,TTCCTTCAAAATTTAAGTAATAAGATAAAAATATAA [CACACA_negctrl_site1696],9.645 ± 0.064
5,CACAGATAAATTAACACACACACACGGATATTTATA [CACACA_site7788],10.09 ± 0.078
6,TATTAATACAGACACACACACACACTAATTAAAATA [CACACA_site7967],10.2 ± 0.2
7,ATTTACCCTTGCCATGCACACTTTTTTATAGAAAAT [CACACA_site5857],10.4 ± 0.28
8,AATATATAATTAATTGCACACCTTGTCACGCCAAAA [CACACA_site1174],10.2 ± 0.15
9,TAAATATATAAACACACACACATTAATACAGATATT [CACACA_site5851],10.045 ± 0.007
10,AAAATTATAAAATGGGCACACATGAAGATTGTAGTA [CACACA_site2226],10.5 ± 0.27
11,GAATGAATACGTTTTACACACTTGAATATAATTTCA [CACACA_site989],10.2 ± 0.12
12,ATATATAAATTTAATACACACCCAAAAAAAAAAAAA [CACACA_site7719],10.1 ± 0.5
13,TTATTTATTTTTTCATGTACTTAAATATATTAATGT [XGTACX_site5804],11.2 ± 0.69
14,TGAAAATATTTTATATGTACATATATTATCAATACA [XGTACX_site92],11.2 ± 0.61
15,TAGAATAATCTATAAACACACAAACCCAACAAAAGA [CACACA_site6132],10.4 ± 0.39
16,ATCTATATTTTTATAACACACAATGATGTACATTAC [CACACA_site6633],11.2 ± 0.86
17,TGTGTGGATATATGTATGCACTACCCTTTGGGTCAT [GTGCAC_site9506],10.3 ± 0.2
18,AAATATTAAATGGAAAACAAATATATATATCTTAAT [XGTACX_negctrl_site383],9.72 ± 0.13
19,ATATATTGAACCTATGCATGTAAAATATATGTAATA [TGCATGCA_site644],9.805 ± 0.007
20,AAAAAAGAAATAATCAAATAAATAAAAAAGATGAAT [XGTACX_negctrl_site607],9.7 ± 0.16
